We go through 34 variants from the RNAGym collection of RNA variant scans (doi:10.1093/nar/gkz1192).

Read counts are not given, so values of variants with three or more changes are uncertain.

First the molecules themselves.
B1: CPEB3 Ribozyme (parent)
chain: UAACAGGGGGCCACAGCAGAAGCGUUCACGUCGCAGCCCCUGUCAGAUUCUGGUGAAUCUGCGAAUUCUGCUGUAUAUCUC

The series covers variants of B1. Description: self-cleavage, relative activity (ratio to wild type); higher = more cleavage; in vitro, sequencing. The essentials:
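For each CPEB3 ribozyme variant, relative activity is its cleaved/total read fraction divided by the unmutated ribozyme's. Barcoded error-prone PCR libraries were transcribed by T7 RNA polymerase (5 hours, 37°C) and held in DNase I for 15 min before an EDTA stop, with cleavage occurring throughout. Template-switching reverse transcription and Illumina sequencing were used to read the RNAs. A 5-read minimum applied, and results are the mean of three batches.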
Regarding UAACAGGGGGCCACAGCAGAAGCAUUCACGUCGCAGCCCCUGUCAGACUCUGGUGAAUGUGCGAAUCCUGCUGUAUAUCUC, the self-cleavage stood at 0.13.
With UAACAGGGGGCCACAGCAGAAGCAUUCACGUCGCAGCCCCUGUCAGAUUCGGGUGAAUCUGCGAAUUCUGCUGCAUAUCUC the figure was 0.22; with UAACAGGGGGCCACAGCAGAAGCCUUCACGUCGCCGCCCCUGUCAGAUUAUGGUGAAUCUGCGAAUUCUGCUGUAUAUCUC, 0.08.
To UAACAGGGGGCCACAGCAGAAGCAUUCACGUCGCAGCCCCUGUCAGAUUCUGGAGAAUCUGCGGAUUCUGCUGUAUAUCUC belongs 0.21.
UAACAGGGGGCCACAGCAGAAGCCUUCACGUCGCAGCCCCUAUCAGAUUCUGGUGAGUCUGCGAACUCUGCUGUAUAUCUC: the self-cleavage came out at 0.08.
To UAACAGGGGGCCACAGCAGAAGCCUUCACGUCGCAGCCCCUGUCAGAUUCUGAUGAAUCUGCGAAUUCUGCUGUAUACCUC belongs 0.16.
As for UAACAGGGGGCCACAGCAGAAGCAUUCACGUCGCAGCCCCACUCAGAUUCUGGUGAAUCAGCGAAUUCUGCUGCAUAUCUC, the self-cleavage turned out to be 0.14.
With UAACAGGGGGCCACAGCAGAAGCCUUCACGUCGCAGCUCCUGUCAGAUUCUGGUGGAUCUGCGAAUUCUGCUGUAUAUCUC the figure was 0.07; with UAACAGGGGGCCACAGCAGAAGCAUUCACGUCGCAGCCCCAGUCAGAUUCUGGUGAAUCUGCGAAUUCUGCAGUAUAUCUC, 0.37.
With UAACAGGGGGCCACAGCAGAAGCUUUCACGUCGCUGCCCCUGUCAGAUUCUGGUGAAUCUGCGAGUACUGCUGUAUAUCUC the figure was 0.1; with UAACAGGGGGCCACAGCAGAAGCCUUCACGUCGCAGCCCCUGUCAGAUUCUGGUGAAUCUGCGAAUUCCACCGUAUAUCUC, 0.08.
UAACAGGGGGCCACAGCAGAAGCCUUCACGUCGCAGCCCCUGUCAGACUCUGGUGAAUCCGCGAAUUCUGCUGUAUAUCUC: the self-cleavage amounted to 0.17.
To UAACAGGGGGCCACAGCAGAAGCAUUCACGUCGCAGCCCCCGACUGAUUCUGGUGAAUCUGCGAAUUCUGCUGUAUAUCUC belongs 0.09.
As for UAACAGGGGGCCACAGCAGAAGCAUUCACGUCGCAGCCCCUGUCAGACUCUGGUGAAUCUGCUGAUUCUGCUGCAUAUCUC, the self-cleavage was found to be 0.07.
UAACAGGGGGCCACAGCAGAAGCCUUCACGUCGCGGCCCCUGUCAGACUCUGGUGAACCUGCGAAUUCUGCUGUAUAUCUC: the self-cleavage stood at 0.16.
As for UAACAGGGGGCCACAGCAGAAGCAUUCACGUCGCAGCCCCUGGCUGAUUCUGGUGAAUCUGCGAAUUCUGCUGUAUAUCUC, the self-cleavage was 0.14.
To UAACAGGGGGCCACAGCAGAAGCCUUCACGUCGCAGCCCCUGUCAGAUUCUGGUGAAUCUGCGAGUUCCGCUGAAUAUCUC belongs 0.15; to UAACAGGGGGCCACAGCAGAAGCAUUCACGUCGCAGCCCCUGUCAGAUCCUGGUGAAUCUGUGAAUUCUGCCGUAUAUCUC, 0.13; to UAACAGGGGGCCACAGCAGAAGCUUUCACGUCUCAGCCCCUGUCAGAUUCUGGUGAAUCUGAGAAUUCUGCUGUAUAUCUC, 0.29.
As to UAACAGGGGGCCACAGCAGAAGCAUUCACGUCGCAGCCCCUGUCAGAUUCCGGUGAAUCUGCGAAUUCUGCUGUAUGUCUC, the self-cleavage turned out to be 0.11.
With UAACAGGGGGCCACAGCAGAAGCCUACACGUCGCAGCCCCUGUCAGAUUCUGGUGAGUCUGCGAAUUCUCCUGUAUAUCUC the figure was 0.1; with UAACAGGGGGCCACAGCAGAAGCCUUCACGUCGCUGCCCCUGUCAGAUUCCGGUGGAUCUGCGAAUUCUGCCGUAUAUCUC, 0.08; with UAACAGGGGGCCACAGCAGAAGCAUUCACGGCGCUGCCCGUGUCAGGUUCUGGUGAGUCUGCGUAUUCUGCUGUAUAUCUC, 0.05.
As to UAACAGGGGGCCACAGCAGAAGCUUCCACGUCGCAGCCCCCGUCAGAUUCUGGUGAAUCUGCGAAUGCUGCUGUGUGUCUC, the self-cleavage amounted to 0.05.
Turning to UAACAGGGGGCCACAGCAGAAGCAUUCACGUCGCAGCCCCCGUCCGACUCAGGUGAAUCAGUGAAUUCUGCUGUAUAUCUC, the self-cleavage stood at 0.06.
Take UAACAGGGGGCCACAGCAGAAGCAUUCACGUCGCAGCCCCCGCCAGAUUCUGGUGAGUCUGCGAAUUCUGCUGUAUAUCUC: the self-cleavage worked out at 0.12.
With UAACAGGGGGCCACAGCAGAAGCCUGCACGUCGCAGCCCCUGCCAGACUCUGGUGAGUCUGCUAAUUCUGCUGUAUAUCUC, the self-cleavage came to 0.11.
To UAACAGGGGGCCACAGCAGAAGCAUUCACGUCGCAGCCCCAAUCAGAUUCUGGUGAAUCUGCGAAUUCCGCUGUAUAUCUC belongs 0.17.
To UAACAGGGGGCCACAGCAGAAGCUUUCACGACGCAGCCCCUGUCAGAUUCUGGCGAAUCUGCGAAUUCCGCUGUAUAUCUC belongs 0.07; to UAACAGGGGGCCACAGCAGAAGCCUACACGUCGCAGCCCCUGUCAGAUUCUGGUGAGUCUGCGAAUUCUGCUGUAUAUCUC, 0.25.
With UAACAGGGGGCCACAGCAGAAGCCUUCACGUCGCAGCCCCUGUCAGAUUCUGGUGAAUCUGCGAGUUCUGCCGUAUAUCUC the figure was 0.11.
Turning to UAACAGGGGGCCACAGCAGAAGCCUUCACGUCGCAGCCCCAGUCAGAUUCAGGUGAAUCUGCGAAUUCUGCUGUAUAUCUC, the self-cleavage was 0.24.
To UAACAGGGGGCCACAGCAGAAGCCUUCACGUCGCAGCCCCUGUCCGAUUCUCGUGAGUCUGCGAAUUCUGCUGUAUUUCUC belongs 0.09; to UAACAGGGGGCCACAGCAGAAGCCUUCGCGUCGCAGCCCCUAUCAGAUUCUGGUGAAUCUGCGAAUUCUGCUGUAUAUCUC, 0.22.
